The RNAGym collection of RNA variant scans (doi:10.7554/elife.90254)
Read counts are not given, so values of variants with three or more changes are uncertain.

B1: OR4K15 (parent)
chain: GUUAACGGUCAUAGGCCAUGGAAACUAGGAGCACCAUUUCGCUGCCAGUGAAGAAAUGAACAAAGAAAAUCUGGGCCAGGCAGGCAUCAAAAGAAAUAGUCUUGCGCUCAACCAGAAAGUCUGUAAUCAUUUUAAGGGUA

Variants of: B1
Experiment: self-cleavage, relative activity (ratio to wild type); higher = more cleavage; in vitro, sequencing; the parent is a self-cleaving ribozyme

Row | Variant | self-cleavage
1 | U3C A22G A69G U87C A98U U131C | 1.13
2 | G21A A33U U37C A51U | 1.17
3 | A33G U43C A118G | 0.13
4 | A55G U70C A98G G137A | 0.25
5 | A5G U38C A66G | 1.54
6 | G44A A59G A60G A114U A116G A117G | 0.01
7 | A51U A64G A114G | 0.13
8 | A18G A60G A91G | 0.7
9 | A11G A52C A126G | 1.19
10 | U9C A91G U103C | 0.28
11 | A47U A56G G73A G84A | 0.17
12 | A47G A82G A91U A94G U131C | 0.61
13 | G53A A92U A111U A126G | 0.06
14 | A11G A59U A90G U127C | 0.46
15 | C46U A82G A118G U132C | 0.53
16 | U19G U43C A89G A92G U122C U127C U130C | 1.27
17 | A22G A23G A60G A126G | 0.56
18 | U37C U39A A52G A92G A94G | 0.32
19 | U9A A117U U133A | 1.51
20 | A22U C34A U43A A47G | 1
21 | A23G A36G G48A A68G A86G | 0.87
22 | A66G A110G A126U | 0.12
23 | A68G A86G U131C | 0.61
24 | A30G A60G A68G A89G | 2.03

Row | Variant | self-cleavage
25 | A23G A55G A86G | 0.34
26 | U2A A18G A30G A52U A60G A114U A116G | 0.05
27 | U9A A33G U37C A52G U87C | 0.7
28 | U19C A62G A91G U108A U132C | 0
29 | U2C U39A U87C | 0.8
30 | C6U A13U A47U A54G A64U A89G C112A U139C | 0.03
31 | U12A A47G A63G A116U | 0.54
32 | A56G A66G A110G A125G | 0.03
33 | G29C U39C A78U | 0
34 | A62G A67G A114G | 0.15
35 | U39C A89U A92G | 1.62
36 | U26C A30G A33U | 1.03
37 | G7A A13G U39A C88U A94G | 1.44
38 | A5C A82G G137A | 0.43
39 | U3C A33U A110G | 0.22
40 | A98G U102C A114C A117U | 0.02
41 | U2C A30U A66G | 1.31
42 | U72C U103C C112A | 0.01
43 | A67U A96G U103C | 1.46
44 | A54G U70C A89G | 1.13
45 | A30U C46U A56G G58A A117U U122C U131C | 0.65
46 | A68G U100C U127C | 1.14
47 | C40A A54G A117G | 2.28
48 | A23G A55U A67C A92G | 1.42

Row | Variant | self-cleavage
49 | U38C A96G U127C | 1.22
50 | G7A A18G G31C U38C A90G A114U | 0.15
51 | U19A A52U U100C | 2.15
52 | A24G A56G A67C U87C | 0.95
53 | A11U A30G A125G | 0.42
54 | U9A G28A A64G A78U U131C | 0.07
55 | A68G A114U A118G | 0.03
56 | A22G U38C U43A A55G U130C | 0.66
57 | A36C U37A U49C C61U A140U | 2.3
58 | A22G U43A A135G | 2.13
59 | A23G G31A A51G A82G U130C | 0.57
60 | A59G U131A U132A A135U | 1.29
61 | A47G A125U A135G | 0.33
62 | U49G U57C A91G A94G | 0.74
63 | A22G A47G A78G U102C | 0.24
64 | A22G A52U U57C A89U U100C | 1.67
65 | A30U C32U C121U U122C | 1.44
66 | A33G G74A A98G U108C A116G A126G | 0
67 | A30G U39C C40A U127A | 1.98
68 | U49A A67G A68G U131C | 0.71
69 | A22G U43C A47G U57A A68G U102A A118G | 0.07
70 | A22G A68G A82G A94U A140U | 0.96
71 | A18U G75C U100G U108C | 0.01
72 | U19C A23G U102C U124A | 0.77

Row | Variant | self-cleavage
73 | U2C A60G U124A | 0.31
74 | U26C A36G A116G | 0.88
75 | A66U A69U A89G | 1.14
76 | A54G A62G A86U A92G A94G | 0.62
77 | A86U U87A U100C | 2.14
78 | C10U G41U A51G A54G A55G A59U U70C | 0.09
79 | A18G A36G U43C A52G U103A U130C | 0.13
80 | A24G A86G U87C | 0.92
81 | A68G C105U A116G | 0.05
82 | A33G A92G U132C | 0.76
83 | A23G U70C A125G | 0.1
84 | A27U A62U A63G A117U | 1.03
85 | U39C U43A U130C | 1.92
86 | U26A U102C A135G | 1.72
87 | A78U A89G A117G | 0.34
88 | U12C U87A U102C | 1.14
89 | A27G A66G A86G | 2.03
90 | A23G C32U U70A | 1.24
91 | U2C A24G U39C U70A A89G | 1.03
92 | U3C A51G A56G U102C A125G U132C | 1.11
93 | A98U A111G A116G U130C | 0
94 | A4G A5G A47G G53A | 0.8
95 | U49C A68G U124C | 0.57
96 | A110G A116G A117G | 0.06

Row | Variant | self-cleavage
97 | U87C A118G G136A | 1.22
98 | A51G A91G U108C A118G | 0.01
99 | U19C A63G U87A A125G | 0.49
100 | C42U A82C A126U | 0.36
101 | G28U A59G G104U A126G | 0.01
102 | A30C A90G A129G | 0.14
103 | A18U A91G A126G U133C | 1.25
104 | A59G A60U A117G U131C | 1.38
105 | A5G U49A U100C U108C | 0.02
106 | U12C C17A A47C A60G A90G U103A A111G | 0.01
107 | A30G A51G A59G A78G A135G | 0.21
108 | A5G A13G U87A | 0.76
109 | U2C U9A A59G A129G | 0.44
110 | A18G A36G A92G C105U | 0.38
111 | U49C A68G C107U C112U | 0.02
112 | U3A U9C U37C A114U | 0.06
113 | A24G U38C A51G A117U | 0.99
114 | U19C A66G A111G | 0.06
115 | U49C A94C A116G | 0.2
116 | A24G A64G A86G | 0.87
117 | A22G A52G A117G | 0.51
118 | A23G U39C G75U | 0.18
119 | G7A A92G C105U A140U | 0.09
120 | A68G A111G A140G | 0.02

Row | Variant | self-cleavage
121 | A54G A67G U70C A78U A95G U127C | 0.09
122 | A33G A78C A98G U102C G136C | 0.21
123 | A5U A22G G75U U87A C109U A117G | 0.03
124 | A30G C61U A96G | 1.44
125 | U9C A18G U132C | 1.06
126 | C32U A33G A54G A90G | 0.99
127 | A13G A126G U127C | 0.38
128 | U9C U39C A78G A118G | 0
129 | U39C A51U A129G | 1.1
130 | U49C A94G A126G | 1.01
131 | A36U G65U U132C | 1.13
132 | U9C A56G U70G A90G U103C | 0.44
133 | A18G A47U A64U A140C | 0.51
134 | U19A U57C A64G A68G | 1.42
135 | G21A A51G G58A A59G | 0.9
136 | U9C U19A A55G A67G | 0.29
137 | C32A A118G U124C | 0.33
138 | A13U U57C A69U | 1.1
139 | A18G G75A U103C | 0.14
140 | G58A U130C U133C | 0.53
141 | U2A U37C A118G | 0.47
142 | A56G U57C A68G A89C | 1.01
143 | A23G A27G A36U A66G A98U U131C | 2.37
144 | A11U G83A G136U | 2.03

Row | Variant | self-cleavage
145 | U26C U37C U38A | 1.62
146 | A66G U70C U72C A98G C128A | 0.04
147 | C17U A33G A111G | 0.07
148 | U26A A33U A47G | 0.67
149 | C34A A60U A126G | 1.52
150 | A30G U127A U130C U132C | 1.38
151 | A54G U72C A96U A111G | 0.03
152 | A5G U26C U38C U102A U103G C109U A110C | 0.04
153 | A11G U43A G80A A126G | 0.18
154 | A22G A96G U122C | 1.74
155 | A47G A94G A116G | 0.97
156 | A11G C42A A52G A95U A96G | 0.52
157 | A30U A86G A118U | 0.24
158 | U37C A67U U102C | 2.07
159 | A23C U26A A68G U72G A92G | 0.27
160 | A33G U49A A51G | 0.4
161 | A24U A33G U37C A64G A110G | 0.07
162 | U19A A23G U39C A82U A116U | 0.02
163 | A18G A24G A60U A64G A92G U108C A118G | 0.01
164 | A11G A117U U122A | 1.11
165 | A22G U39C A51G U122C | 0.89
166 | C17A A95G U122A | 1.62
167 | G8A A66G U70C A78G | 0.25
